# The list shows a part of the results. At the low end of the ranking the order means little.
# Target: SIX1-Q177R homeodomain (UniProt Q15475)
# Assay: universal protein binding microarray
# Settings: Universal all-10-mer PBM (8x60K, AMADID 030236), 300 nM GST-tagged protein, Alexa Fluor 488 anti-GST; buffer, salt, pH and temperature not stated; high values mean tight binding; most listed sequences are background and not binding sites; double strand, one strand shown
row,Sequence,binding signal [E-score]
1,GGTCAGAC,-0.146
2,ACATCTCC,-0.2
3,ATACTACC,0.0251
4,AACCACCT,-0.0487
5,ACAAGGAG,-0.0319
6,CGTATTAA,0.012
7,ATAACATG,-0.0879
8,CTTCTGCC,-0.177
9,GATCCTAA,-0.00228
10,AAAGAACG,-0.0893
11,ATGTCCAA,-0.198
12,ATCGCAGA,0.00534
13,AAGGAGCA,-0.157
14,GATCACTA,0.0458
15,ATGTCGGC,-0.0929
16,GTACCTGA,0.104
17,ACATTTTG,-0.185
18,AACTACGA,-0.00467
19,AACTATGA,-0.0603
20,AAACAGCG,-0.101
21,AAAAGGTT,-0.3
22,CAACTTTC,-0.16
23,ATACTCAA,0.092
24,ACAACTCG,0.0777
25,GAAACGGC,-0.142

row,Sequence,binding signal [E-score]
1,CATTCACC,-0.127
2,AAACCCTA,0.157
3,AGAGGACC,0.0123
4,ACGAGATC,-0.148
5,TGTTCGAA,0.089
6,AGTAATCC,-0.0178
7,TCTCTCCA,-0.0788
8,AAGAGCTA,-0.0801
9,AGTGGAAA,-0.0983
10,TCGTCACA,0.0535
11,GCAGACCA,-0.259
12,ACGTGGAG,-0.00873
13,TCCAACCA,-0.0192
14,GATACGAA,-0.0533
15,CGCGTCAC,0.0988
16,CCTGAATA,0.0856
17,CCTCAGGA,-0.155
18,CATACAAG,-0.0137
19,CGGGCTCA,0.142
20,GACGTACA,0.0635
21,AATCGATG,0.0677
22,CAACGGCC,-0.177
23,AAACAGGG,-0.0897
24,AGTCAGAG,0.156
25,CATGACAA,-0.0242

row,Sequence,binding signal [E-score]
1,CGAATAGA,-0.0564
2,GCATATCA,-0.208
3,GATAAATC,-0.0921
4,ATATACGC,-0.161
5,ATGAACCG,0.0408
6,GGTATGAC,0.0249
7,CAGATGAA,-0.202
8,TCCAAAGA,-0.127
9,AACCGGAA,-0.257
10,ACACTGGA,0.391
11,TGTGTAAA,0.235
12,GCAGGGAC,-0.103
13,CAGAATTA,-0.154
14,CAGCAGTC,-0.0439
15,AGGCAGTG,0.0878
16,AAGTGGGG,0.0947
17,CTCCAAAG,-0.146
18,CGAGAGGC,-0.153
19,GATAGTCA,-0.0833
20,CCTAAGCG,-0.052
21,AAACGCGG,0.0564
22,CAGTCCTA,0.0146
23,ACTGCCTG,-0.0387
24,GAGACCGC,-0.155
25,GTAGTTCA,-0.0394

row,Sequence,binding signal [E-score]
1,GCGCGAGC,-0.0531
2,CTTCGTTC,-0.156
3,CCTAAACC,-0.067
4,AAGCCGGG,0.101
5,CCAGTTAG,0.111
6,CTGGGCCC,-0.0728
7,ATGTCTAG,-0.213
8,CTATCGTA,0.101
9,GTGCTAAA,0.0974
10,CTAGAAGA,-0.137
11,CTACAACC,0.0395
12,AAAAGCTG,-0.0483
13,CCGGTCAC,0.0794
14,ATGAGAGA,-0.133
15,GTTAGACA,0.214
16,ACTACAAA,0.0719
17,GCACACAA,-0.00891
18,CAGCGCTG,0.0146
19,AGGTGGGA,0.0922
20,GCCGTAGA,-0.149
21,CCGTCCCC,0.0126
22,AGGGCCAC,-0.2
23,CAGAAGCG,-0.0423
24,GGCGGGCA,-0.12
25,CTATGAGC,-0.172

row,Sequence,binding signal [E-score]
1,AAGCAAGC,-0.231
2,TCCTATAA,-0.172
3,GTATCTTA,0.11
4,CGCACTTA,-0.101
5,CAGGACGG,-0.0736
6,AGTGATAG,-0.0083
7,GACCCCCC,0.248
8,CGGCATAC,0.0159
9,ATAAGGCC,-0.102
10,GAGAGAAA,-0.346
11,AGTGTTCA,0.343
12,ATCATATG,0.0663
13,ACGACAGG,0.0617
14,AGCTCCAT,-0.103
15,GACTTGAA,-0.318
16,CAATTACA,0.129
17,AGCCAGGG,-0.0733
18,AGATAGAT,-0.267
19,AACCGTGA,-0.162
20,ACGTGAAG,-0.106
21,ACGCGGGA,0.119
22,ACGGTCTC,0.153
23,TCTCAACA,0.219
24,TAAGATGA,-0.12
25,CGATATAA,-0.0667

row,Sequence,binding signal [E-score]
1,GCTGCAGA,-0.17
2,AAACAAAA,-0.163
3,TAGGCGCA,-0.0774
4,GCCGTACC,0.019
5,CTCCATAC,0.0613
6,CATCCCTA,-0.156
7,TGCATACA,0.133
8,GCGGTCGA,0.152
9,GCAGCGAA,-0.131
10,TAGCCAGA,-0.248
11,GCCCGAGC,-0.142
12,GCGGAAGC,-0.15
13,GTCTTACA,0.249
14,CACGTCGC,-0.00501
15,CGGTCGGC,-0.0634
16,AACACGGT,0.383
17,GAATCAAA,-0.0282
18,ATATTCAT,-0.0466
19,GAGTTAAA,-0.0185
20,AACTGACT,-0.0541
21,AGACCGAA,-0.163
22,ACCGGGAC,0.0225
23,CAGTTATC,-0.188
24,TCTCCGAA,-0.205
25,AGGGTGGC,0.00221

row,Sequence,binding signal [E-score]
1,AATCGACC,-0.0146
2,CGTCTTAC,-0.0955
3,AAACGAGC,-0.0975
4,CGATTTGA,-0.194
5,AACGTAAT,-0.149
6,AGTACAAT,-0.157
7,GAACTGGA,-0.236
8,ACTGGACA,0.0461
9,GAACAGTA,-0.222
10,GAGGGGGA,-0.00312
11,CATTGTGA,0.0457
12,CGTCTACA,0.0567
13,GTTGGGCA,0.153
14,AGTTCGTA,-0.11
15,ACAGGCCA,-0.127
16,ATGTTCTA,-0.231
17,AGAATTAA,-0.33
18,CTTTTGTC,-0.275
19,AAAAGCGT,-0.0991
20,AGTGAGCG,-0.0831
21,CCCGTCGA,0.108
22,ATGATACA,0.0981
